# Out of some 150,000 compounds screened, about 540 (0.36%) showed an effect of 50% or more. Some of the results follow.
# Tested on: Plasmodium falciparum
# Assay: Primary screen in NF54 nanoGlo assay, in single point, at 2uM, 72h; a lower Z score goes with more inhibition
# Format: functional, Erythrocyte
# Details: timepoint 72 hour
Compound,% Inhibition,Z score
COc1ccccc1NC(=O)CC1=Nc2ccccc2S(=O)(=O)N1,3%,-0.33
CC1CCN(S(=O)(=O)N2CCN(Cc3cccnc3)CC2)CC1,2%,-0.39
Cc1cc(NC(=O)NCCc2n[nH]c(=O)n2C)c(Cl)cc1F,12%,-1.49
CC1(C)CN(C2(CNC(=O)[C@H]3CCc4[nH]ncc4C3)CCCCC2)CCO1,-1%,0.2
O=C(Cc1ccccc1)Nc1ccc(Nc2ccccc2)cc1,-3%,0.47
CC[C@H](C)N(CCO)Cc1cscn1,-6%,0.83
Cc1ccc(CN(Cc2ccccc2)C(=O)CN(C(=O)C2CCC2)C(C)C)o1,-3%,0.5
COC(CNC(=O)C1CC(=O)N(C)C1)C(C)(C)C (configuration not stated),-9%,1.53
CC(C)C(C)(C)CNCc1cncs1,10%,-0.92
CCc1noc(CN(C)CCc2nc3ccccc3c(=O)[nH]2)n1,-15%,2.64
Cc1ccn(CCNc2nccc(-c3c(C)nn(C)c3C)n2)n1,0%,0.01
COc1ccc(C(=O)Nc2cc(-c3cc(C)n(-c4ccccc4F)c3C)nn2-c2ccccc2)cc1OC,14%,-2.66
O=C(Cc1n[nH]c(=O)c2cc(-c3ccccc3)nn12)Nc1ccc(F)c(F)c1,-3%,0.43
NCC1(c2ccccc2)CCCCCC1,-20%,2.04
O=C(Cn1cnc2nc(N3CCOCC3)sc2c1=O)Nc1ccc(F)cc1,-3%,0.31
O=S(=O)(Cc1ccc(F)cc1)N1CC(C(F)F)C1,-8%,0.94
C[C@@H](O)[C@@H]1NC(=O)[C@@H]2C[C@H](NC(=O)c3ccc(Cl)cc3)CN2C1=O,-10%,1.91
CCCCc1nc(CN2CCC(c3nc(C)n[nH]3)CC2)c[nH]1,-8%,1.34
CC(C)c1noc(N2CCc3sccc3C2)n1,-11%,1.43
O=C(Nc1cccc(-c2ccc3c(c2)OCCO3)n1)c1c[nH]nn1,-11%,1.86
CCc1ccc(CN2CCN(c3cnc(CO)cn3)CC2)s1,0%,-0.05
CN(CCC1CCOCC1)c1nnc(-c2ccccn2)s1,-22%,3.34

Compound,% Inhibition,Z score
CCCCNS(=O)(=O)c1cc(C)c(Br)cc1OC,33%,-3.69
CS(=O)(=O)c1ccccc1N1CCO[C@H](c2ccsc2)C1,-2%,0.31
COCCN1CCN2C(=O)[C@H](Cc3ccccc3)N(C(=O)CCn3cccn3)C[C@H]2C1=O,-18%,1.59
Cc1c(NC(=O)C2=COCCC2)cccc1N(C)C,-6%,0.99
CN(C)[C@@H](CNS(=O)(=O)c1cc2c(cc1Br)NC(=O)CO2)c1ccc(F)cc1,-31%,3.17
Cc1ccc(-n2nc(C(=O)N(C)C3CCCCC3)c(=O)n(Cc3cccc(Cl)c3)c2=O)cc1,-14%,1.21
O=S(=O)(c1cnn(CC2CC2)c1)N1CCCN(c2ccc(F)c(F)c2)CC1,-6%,0.47
O=C(NCCN1CCCCC1=O)c1cc(Cn2ccc3ccccc32)[nH]n1,2%,-0.34
CCCc1cnc(C)nc1N1CC[C@H](N2CCOCC2)[C@H](CCC(=O)O)C1,7%,-1.31
CC(C)c1ccc(O[C@@H](C)c2nc(C3CC3)no2)cc1,-8%,1.17
Cc1ccc(-c2nc(CNC(C)C(C)n3cccn3)cs2)o1 (configuration not stated),-8%,0.83
c1cn(C[C@@H]2CCCN2c2nc(C3CCCC3)ns2)nn1,32%,-4.66
O=C(CNC(=O)c1cccnc1)NC1CCC(Oc2ncccc2Cl)CC1 (configuration not stated),-5%,0.47
Cc1nc(NC(=O)CC2=CCCCC2)n(C)n1,5%,-0.53
O=C(CC1CCCO1)N1CCc2sccc2C1c1ccccc1 (configuration not stated),6%,-1.2
COc1cc(C)ccc1OS(=O)(=O)CC12CCCN(CC1)C2 (configuration not stated),-12%,1.67
O=C(Nc1nc(-c2ccc(Cl)s2)ns1)c1ccccc1,5%,-0.79
CCc1nn(C)c2[nH]nc(NC(=O)c3cc(C(C)C)n(C)n3)c12,-1%,0.09
CCC[C@@H](C#N)NC(=O)c1ccnc(C(F)(F)F)c1N,2%,-0.37
O=S(=O)(Nc1ccc2nncn2c1)c1cc(F)ccc1Cl,27%,-3.64
O=C(NCC1CCCOC1)C1CCCN1CC(F)(F)F (configuration not stated),4%,-0.56
CN(C)CCNC(=O)c1ccc(-c2c(-c3ccc(F)cc3)ncn2C2CCCC2)o1,5%,-0.71

Compound,% Inhibition,Z score
O=C(CCCC(=O)N1CCC2(CC1)CC2(F)F)c1ccccc1,15%,-1.94
O=c1nc(-c2ccccc2)c(-c2ccccc2)nn1C[C@H](O)c1ccccc1F,-10%,1.91
O=C1NCCCC[C@@H]1N(Cc1cccc(OCCc2ccccc2F)c1)S(=O)(=O)c1cccs1,-1%,0.24
Cc1noc2ncnc(N3CCN(S(C)(=O)=O)CC3)c12,11%,-1.36
Cc1cccc(CN2[C@H](CNC(=O)c3cc(C)on3)CN(C)C(=O)[C@@H]2C)c1,7%,-0.97
COC(C)(C)CCNC(=O)c1ccc(O)cc1C,-25%,2.2
O=C(c1cccc(-c2nccs2)c1)N1CCCO[C@@H](CN2CCCC2)C1,-13%,1.42
Cc1nc(CC(C)C)c(C(=O)Nc2snc(C)c2C#N)s1,20%,-2.49
CN1C[C@H]2CC[C@@H](C1)N(Cc1cnc(NCc3ccccc3)nc1)C2,13%,-2.09
C#CCOc1ccc(C(C)N[C@H](CO)C(C)C)cc1 (some centres not stated),-3%,0.35
CN1C(=O)[C@]2(CC(=O)Nc3c2cnn3-c2nc3ccccc3s2)c2cc(F)ccc21,-6%,0.73
CCOC(=O)N1CCC(NC(=O)c2cnccn2)CC1,-10%,1.35
CCOc1ccc(C2CC2N=C(N(C)C)N(C)C)cc1 (configuration not stated),-11%,1.26
O=C1N(c2ccccc2)Cc2nn(Cc3cccc(Cl)c3)c(=O)n21,6%,-1.22
COCCN1CC2(CCN(S(=O)(=O)c3ccc(F)cc3F)CC2)[C@H]1c1ccncc1,-7%,1.16
O=C(CCn1ccc2ccccc21)N1CCC[C@@H]1CO,-1%,0.17
CN1C[C@H](CNc2nnc(-c3ccccc3)s2)OCC1=O,-15%,2.53
Cc1cccc(NCCCc2nnc3ccccn23)n1,-8%,0.81
Nc1ncccc1-c1nc2ncccc2o1,-4%,0.59
c1csc(-c2nc(CCn3cnc4ccccc43)no2)c1,-2%,0.27
CN(CCN1CCOC1=O)c1ccnc2c(F)cccc12,-6%,0.94
c1ccc(/C(=C(\c2ccccc2)c2ccncc2)c2ccncc2)cc1,-7%,0.87

Compound,% Inhibition,Z score
COc1ccccc1CNC(=O)Cn1cc(OC)c(=O)cc1CO,-10%,1.3
Cc1ccc(NC(=O)C(=O)c2ccc[nH]2)c(Cl)c1,-18%,1.65
CCn1c(=O)c(-c2noc(C(=O)NCCCN3CCOCC3)n2)nn(-c2ccc(C)cc2)c1=O,-3%,0.51
CCCCN(C)S(=O)(=O)N1CC[C@H](CN2CCCCC2)C1,-9%,1.55
O=C(NC[C@H]1CCCN(C(=O)c2ccc3nccn3c2)C1)c1ccccc1,-7%,1.16
O=C(NCc1ccccc1)c1cc(NC[C@H]2CCOC2)ccn1,11%,-2.15
O=C(NCc1cccnc1)[C@@H]1C[C@@H](O)CN1C1CCN(C(=O)c2ccccc2)CC1,2%,-0.24
CCc1csc(CN[C@@H](C)CCc2c[nH]c3ccccc23)n1,-14%,1.33
Cc1ccc(C(=O)N2Cc3c(C(=O)N4CCCC4)nn(C)c3C2)cn1,-14%,1.77
NC(=O)[C@@H]1CCCN1C(=O)c1c[nH]c2ccccc12,-16%,2.12
COc1cc2c(cc1OC)CN(C(=O)C1C3CCCCC31)CC2 (configuration not stated),5%,-0.59
Cc1nc(CNC(=O)N2CCC3CCCCC32)sc1C (configuration not stated),-9%,1.59
COc1ccc(-n2nc(C(=O)NCc3ccc(F)cc3)c(=O)n(Cc3cccc(OC)c3)c2=O)cc1,-1%,0.13
Cc1ccc(-c2ccc(=O)n([C@@H](C)C(=O)N3CCc4ccccc43)n2)cc1,0%,0.02
Cc1nc2cc(CNS(=O)(=O)c3ccc4c(c3)CCCO4)ccc2n1C1CC1,-6%,0.56
CC(=O)N[C@H]1CN(C(=O)c2cccc(S(N)(=O)=O)c2)C[C@@H]1C1CC1,-8%,1.4
CN(C(=O)CN1CCN(C(=O)c2cccc3cc[nH]c23)CC1)C1CCCCC1,-4%,0.51
O=C(CCCn1cncn1)N1CCc2ncnc(N3CCCC3)c2CC1,-11%,2.14
Cc1cc2c(cc1C)N(S(=O)(=O)c1c(N)noc1C)CC2,-8%,1.03
COc1ccc(/N=C2\[C@@H](N3CCCCC3)C3(CCCCC3)C(=O)N2c2ccc(Cl)cc2)cc1,1%,-0.11
